# Data: PubChem BioAssay AID504332 (National Center for Advancing Translational Sciences (NCATS), 2011)
# The whole screen tested about 350,000 compounds, of which about 31,000 (8.9%) were called active. Not shown: some 15% with an inconclusive outcome. Calls come from the whole dose curve; as a rule, active = well fitted inhibition curve with a large enough effect; inconclusive = small, poorly fitted or top-dose-only effect; inactive = no such curve, though single readings can be large or run the other way. A structure can be active in one record and inactive in another. The source holds more than one record for some entries. They are shown here; other results are not. An entry can have further records. Results that share an entry are repeated measurements across runs, samples, wells, individuals or studies.
# Target: Histone-lysine N-methyltransferase EHMT2 (Homo sapiens) (UniProt Q96KQ7)
# Chain of UniProt Q96KQ7 (Q96KQ7 whole entry, looked up): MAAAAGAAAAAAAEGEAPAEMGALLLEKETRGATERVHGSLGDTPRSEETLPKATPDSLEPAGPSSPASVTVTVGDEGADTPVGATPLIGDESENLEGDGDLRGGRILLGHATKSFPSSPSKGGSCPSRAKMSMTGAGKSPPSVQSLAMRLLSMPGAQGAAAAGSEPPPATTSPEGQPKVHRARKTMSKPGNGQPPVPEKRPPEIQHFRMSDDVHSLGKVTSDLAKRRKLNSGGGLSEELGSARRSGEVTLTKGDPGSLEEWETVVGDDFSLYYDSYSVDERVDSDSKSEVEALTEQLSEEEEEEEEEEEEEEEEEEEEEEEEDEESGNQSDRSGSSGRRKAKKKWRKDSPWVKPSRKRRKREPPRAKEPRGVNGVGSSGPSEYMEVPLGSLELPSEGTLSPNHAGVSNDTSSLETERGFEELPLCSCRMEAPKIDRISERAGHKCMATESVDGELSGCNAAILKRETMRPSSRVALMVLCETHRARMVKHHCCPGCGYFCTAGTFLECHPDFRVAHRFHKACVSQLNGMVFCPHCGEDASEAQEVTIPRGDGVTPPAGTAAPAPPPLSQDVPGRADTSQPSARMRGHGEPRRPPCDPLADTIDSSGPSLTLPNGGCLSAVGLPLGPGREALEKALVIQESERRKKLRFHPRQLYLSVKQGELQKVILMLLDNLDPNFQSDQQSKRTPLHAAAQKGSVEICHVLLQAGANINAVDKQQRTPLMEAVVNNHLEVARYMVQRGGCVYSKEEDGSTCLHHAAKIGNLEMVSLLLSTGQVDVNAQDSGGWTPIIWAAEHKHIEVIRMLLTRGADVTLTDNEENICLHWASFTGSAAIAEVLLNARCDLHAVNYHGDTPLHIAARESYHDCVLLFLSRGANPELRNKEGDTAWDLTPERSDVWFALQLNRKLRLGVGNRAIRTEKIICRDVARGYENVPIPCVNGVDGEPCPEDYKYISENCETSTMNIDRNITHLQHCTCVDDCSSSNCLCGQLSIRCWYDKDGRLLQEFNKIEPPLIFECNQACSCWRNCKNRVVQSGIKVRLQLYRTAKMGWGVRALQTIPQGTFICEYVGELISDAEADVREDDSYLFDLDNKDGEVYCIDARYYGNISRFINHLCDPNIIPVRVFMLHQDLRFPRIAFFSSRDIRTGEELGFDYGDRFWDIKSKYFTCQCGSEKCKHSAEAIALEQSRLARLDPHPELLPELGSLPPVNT
# Assay: qHTS Assay for Inhibitors of Histone Lysine Methyltransferase G9a; note: nearly all actives have a fitted effect of over 75% in size
# Conditions: G9a H3K9 monomethylation, AlphaScreen, 2 h; series mostly up to 12.7 µM
# Potency is the fitted concentration of half-maximal effect.
row,Compound,Potency
1,CC[C@@H]1Cc2cc(O)ccc2C2=C1c1ccc(O)cc1C[C@H]2CC,"active: 20 µM, 14.1 µM, 23.8 µM and inactive [separate samples]"
